Results as given in the supplement of paper PMC3334620.
Over roughly 33,000 sequences, “E-score (-0.5 to 0.5)” has its median near -0.036; the highest 2% begin near 0.37. This is one part of the list.

The sequences below were run against T1, Yer064c (UniProt P40041) (assay: PBM E-score (8-mer binding enrichment) (E-score (-0.5 to 0.5)); higher = stronger / more preferred TF binding; most listed sequences are background and not binding sites). Settings: protein concentration: 200 nM; construct: GST-full length.
T1 sequence: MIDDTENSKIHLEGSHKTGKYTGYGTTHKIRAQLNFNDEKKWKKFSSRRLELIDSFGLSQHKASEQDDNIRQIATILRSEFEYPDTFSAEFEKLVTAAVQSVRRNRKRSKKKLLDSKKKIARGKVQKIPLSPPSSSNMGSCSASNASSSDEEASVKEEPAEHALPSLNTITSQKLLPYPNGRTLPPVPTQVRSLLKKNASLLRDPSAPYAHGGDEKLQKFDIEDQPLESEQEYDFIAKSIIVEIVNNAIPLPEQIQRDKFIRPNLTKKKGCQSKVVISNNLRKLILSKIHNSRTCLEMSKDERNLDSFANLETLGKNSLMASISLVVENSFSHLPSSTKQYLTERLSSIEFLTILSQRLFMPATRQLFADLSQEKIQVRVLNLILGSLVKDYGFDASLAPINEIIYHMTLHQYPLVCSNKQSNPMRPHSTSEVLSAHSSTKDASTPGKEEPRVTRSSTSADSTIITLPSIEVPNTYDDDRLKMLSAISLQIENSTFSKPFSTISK
How it was run: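 E-scores (a modified Wilcoxon-Mann-Whitney statistic) were assigned by the Universal PBM Analysis Suite to every ungapped eight-base word pooled with its reverse complement. The input came from universal all-10-mer Agilent arrays made double-stranded by primer extension and probed with GST-tagged yeast transcription factors at about 100-200 nM. Fluorescent anti-GST detected bound protein, and masliner normalised the scans.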

Sequence	PBM E-score
AACCTGCT	-0.17
CCGCGCTC	-0.147
AGAATTAG	0.00063
ATGCCTAC	-0.322
GTTTGTCA	-0.0655
CCTGACTA	0.461
TGAAGCAA	-0.0849
ATAATCTC	0.137
ATCCCGAC	-0.0953
ATTGGTAG	0.111
AAAAGCAA	0.0447
GCCGTAGA	-0.00155
GGTAAGTA	-0.105
ACAAGACA	-0.114
ACCGATAC	-0.139
AGGGGCAG	-0.383
AATAGCAA	0.19
ATACGGAG	0.043
ATTTCGAG	0.104
CGTAGTAG	0.00309
GCTTCTTA	-0.122
CGTAGCGC	-0.176
GAATCGCA	0.181
ATGCGTTA	-0.0969
CTAGTTCC	-0.0858

Sequence	PBM E-score
CTCCAAAC	-0.0514
CTCACCTA	0.177
CACGTTTA	0.205
TACTCCTA	0.196
GTGAACCA	0.284
GGTGTGCA	-0.109
CCAGGTGC	-0.14
AGGTCCCA	-0.136
AGTAGGTC	-0.0811
CGGGGGAA	-0.311
AGTAGGAA	0.18
CAGGTCCG	-0.074
ACCTAGAC	-0.184
CCGGTCCA	-0.268
AGCTTAGG	-0.118
AGATCACG	0.0914
GACAGTTA	-0.103
AGAACTGC	-0.106
TCCGCGAA	0.115
ATCACGAA	0.106
TCACTAAA	0.133
CGACTAAA	0.41
AGCACAGG	-0.106
AAATAAAG	-0.0152
AAGACAGG	-0.0868

Sequence	PBM E-score
ACCTCGAT	0.0441
CTTTATGA	0.3
GAGAGTCC	0.256
AAAAGCGG	-0.0721
AATTGTAG	0.13
CCGCGAAG	-0.2
CGACGCCA	-0.274
AGTGTCCA	-0.132
GCCGAATA	0.004
GCACTTAA	0.124
AAACGGAT	-0.0575
ACCTGACT	0.44
CTTTCAAA	0.0256
CCGTCTAC	-0.171
ATTGCTCG	-0.0255
CCGAGGCA	-0.00325
CACGCCTC	-0.0802
AGGACCCA	-0.0632
ACGCAGTC	0.264
GGCTACGA	-0.101
CCATGCGC	-0.0638
AATTGGAC	0.0724
AATGTACA	-0.101
CCTAGTAA	0.017
CATCATCC	0.0788

Sequence	PBM E-score
GGTGCACC	-0.277
CAGAATCA	0.349
AACTATAG	-0.0531
CTCGACCA	-0.14
CTTTCTGC	-0.1
GTTCTTAA	0.0325
CATCGGTA	0.0395
CTTAATCC	0.114
GCAGTCCC	-0.00282
GGGGTGAA	0.0547
ACGTACAT	-0.0108
ATTGGTGG	-0.0867
GTCATAGA	0.227
CCGTGAAG	-0.158
AATGATCA	0.227
GCATTCGC	-0.3
TGAGTCAA	0.489
AGCCAGCA	-0.112
CTCGTGTC	-0.101
CTACTTTA	0.11
AACGGTAC	-0.0255
GCCTCAGC	-0.208
AATTATGC	-0.201
CCGCCCGG	-0.102
GAGCAGTA	0.0759

Sequence	PBM E-score
CATCTATA	0.0896
CTCTGAAA	-0.0288
ATTAAGCC	0.134
AGCGACCA	-0.173
ACTAGGAA	0.188
CGTTAGTC	0.45
ATCTCCCG	0.0174
AATTAGGT	0.101
CGGACGTA	-0.252
ATCGAATC	0.193
GCAAATGC	-0.176
CCGCCGAC	-0.0848
ATGGCTAA	0.363
ATAGCTAA	-0.0482
AAACGCGG	-0.199
GTTCACGA	0.0352
GGATGTAC	-0.226
AAGATTCT	0.0986
CAGTTCTA	0.0455
CTCTACAG	0.0458
CATCCTCA	0.0944
AATTTAAG	0.119
AATTCCAG	-0.229
CAGTGATA	-0.0553
AAAAGCTT	-0.12

Sequence	PBM E-score
CAGTACAA	0.0589
ACATGTCC	-0.0827
AATCTCAC	0.172
GTACGGGA	-0.292
ATTTCAAG	0.0642
CCATTGGG	-0.156
GGCAGTAC	-0.0278
GCGCATCC	-0.153
GTATACAA	0.00051
GCCGGTAC	-0.137
AAGAGAGA	-0.0328
AATGGGTG	-0.0447
ATCTATGG	-0.026
GGGGAGTA	-0.0831
ATACTTGG	-0.0981
ACGAGACA	0.12
GTGTCAAA	0.17
AAAGGCCG	-0.299
AAAACCAA	0.0692
ATTCACTC	0.0742
CATTAACC	0.165
ATCAGTCG	0.296
ATGAATTA	0.0557
CCTACGTC	-0.289
ACTGTTCT	0.0772

Sequence	PBM E-score
CATTCCCG	-0.0184
AGCGAAAT	-0.103
GCGAAAGA	-0.0175
GAATACAA	0.0429
CGTTGCGC	-0.22
GACAAAAA	0.09
CGAAGGTC	-0.155
ATCGGGGG	-0.0226
ATTGGCTC	0.101
ACGCCCTC	-0.228
GACGACCA	-0.102
AATCAGCA	0.362
ACAACATA	-0.131
AGGAAACA	-0.0568
ACCAACGC	-0.119
AATTCGCG	-0.0781
AGGATAAA	-0.0251
ATTGTTAG	0.115
GTATTCTA	-0.077
CTGATGGC	-0.0841
TAGCTCGA	-0.203
AATTTGTA	0.121
CCTTCTGC	-0.292
ACCTGCGA	-0.0233
ATAGTTCC	-0.139

Sequence	PBM E-score
AACTAACT	0.133
CCGGCCTC	-0.305
CATCTCGA	-0.108
GCCGGTAA	0.0549
TCAAAAGA	0.199
CAAATTCG	0.00421
GCAGAACC	-0.118
CCATCACG	0.0985
AGACTTGG	-0.0468
ACACGACC	-0.0158
GTAGTGCA	0.0353
CTGTCAAC	-0.106
GAACTGTA	0.148
CTGCTCAC	-0.143
CAAATAGG	-0.0801
GGCATCAA	-0.18
CAGTTTAG	0.00262
CGGGATGA	0.166
CAAACCTC	-0.233
CGTCCTGA	-0.0984
CCCTCGTC	-0.268
CTCAAAAC	0.071
GAATCTTA	0.305
ATAAGTGC	-0.158
CAAAACCA	0.0659

Sequence	PBM E-score
GTCTCAAA	0.175
AAAACCTG	-0.0382
GATTCACA	0.375
GTAGGGAA	-0.131
GTGGCTGA	0.0237
ACAGCTTC	-0.232
GTCTTACA	0.135
CAAACACC	0.0494
ATTCCGGC	-0.207
CAATCTGC	-0.183
GATGAGTA	0.429
CAGCGTCC	-0.124
CTCTAAGA	0.0416
GACTCAAA	0.48
CCACTTAG	0.15
CCTGCCCC	-0.131
AACGCTCA	-0.103
CTATTATC	0.0272
GGAGGCAC	-0.159
CACCTGTA	-0.103
ACTTACCG	0.0141
ATACAAAG	0.201
ACACAACG	-0.0515
ATCGGTGC	-0.146
AATCATTC	0.417

Sequence	PBM E-score
ACTAGACC	0.097
AACTCGCC	-0.0941
CGAGGGCA	-0.274
GCACACGA	0.0265
ATCGCTAA	0.0932
AGACCGAA	0.0789
GAATAGAA	0.119
CTGCTAAG	-0.0639
GATATCGC	-0.0951
ACGCATGG	-0.0728
ACGTACGG	-0.149
GTGGGTCA	0.146
AAGGCATA	-0.129
AAGGCAGT	0.133
AAGCCGTA	-0.038
ATAAGCCC	-0.375
GGATACGA	-0.0195
CATCTAGG	0.0162
CTTCGTAA	-0.0629
CCTAATAA	-0.129
CCCCAAAA	0.00289
ATATACGG	-0.0692
ATGATAAA	0.0806
CCTCAGGA	-0.0143
ACTCTTTC	0.303

Sequence	PBM E-score
CCTTCTGA	-0.0564
ATCTAGAA	0.149
ACTGGGTG	0.0348
AAAACCCA	-0.0671
GCTCGCAA	-0.0425
CAGGCCTG	-0.15
CGCAGGGA	-0.0887
ACTCGATG	0.25
AGTGTAGA	0.0906
TACCCCTA	-0.042
GGTCGGAC	0.0346
CGCAAGCG	-0.0375
ATATCAAA	0.124
TAGATCTA	0.00835
AGCCGTTC	-0.201
CTGCATTC	-0.0186
AAGTCGTC	0.273
CAACACAC	0.0236
GACAGAGC	-0.0875
AGAGGGTC	-0.105
AAAAAGGG	-0.0603
AGGGAAAA	-0.0867
GCTACCCA	-0.00982
AACTGGGA	-0.19
GCTGGCCA	-0.198

Sequence	PBM E-score
ACAGACAA	0.123
CCTACTTA	-0.091
AAGTCTCT	0.033
AGACGGGC	-0.335
CAATGTGA	0.0486
GAGCTCAC	0.0076
ATCTACAG	-0.118
TATGCGGA	-0.204
ACGGATTC	-0.00359
CGCACGCA	-0.232
AGCTCGGA	-0.183
GTATTTCA	0.00218
CAGGGACA	0.111
CACCCCAC	0.00556
AGTGTTGG	-0.201
TAGGAAGA	0.0707
CGAGTACG	0.175
CAACTACG	-0.0569
GAGGCGCC	-0.121
CGTTGTTA	0.0945
CGCTGGGA	-0.21
AAATATCG	0.0289
TCTGTAAA	-0.0296
ACCAAGGT	-0.00843
ACCATCCT	-0.0228

Sequence	PBM E-score
TGCTAGAA	-0.0216
CTGAGGCC	-0.117
GTCTCCTA	0.0324
GATAATGC	-0.131
GATCGGAA	-0.132
ATTAACTG	0.296
ACAAAGAA	0.0748
GAATAAGC	-0.0833
AATCAGCT	0.389
CAAACCCC	-0.133
CGTGACGC	-0.00579
AACAGCGT	-0.147
CGAGGCAA	-0.114
CGAATAAA	-0.168
TCACTCGA	0.225
ATCGGTAA	0.0956
AGGCACAG	-0.0793
AGCCTTGA	0.116
AGTTGCTA	-0.121
CAGACACA	0.0787
CACGGGCG	-0.187
CTAGGGTC	-0.251
AACACCAT	-0.0344
ACAAAAAT	0.113
ATCTTAGC	0.043

Sequence	PBM E-score
AGAAGTGA	0.0848
CGGCGTAC	-0.0619
GCATTAAA	0.0123
AACGCAAA	-0.0149
ATAACGCG	0.00405
CCGAAGGC	-0.183
ACTACTCG	0.236
GATAGCGC	-0.282
AGATGGCC	-0.16
GGATGAAA	-0.0892
CTTCTAGC	-0.213
CATGGAAC	0.0128
CTCAAGAA	0.0322
CCACTGCC	-0.0194
AAGCCGCC	-0.179
AGAGTACC	0.0405
ACTAAGGG	0.206
AGCAGTTA	0.0388
CTTCTCTA	-0.0864
